For some of these results: The name of at least one read-out is uncertain. For some of these results: For at least one compound, name, drawing or mass did not settle the structure.
Tests used:
[1] = system: rabbit aortic rings; test: Assay B: In Vitro Vascular Smooth Muscle Response for AII; type: cell-based; settings: antagonist at 10^-5 M, two values per cell = aorta rings from two rabbits
Protocol: Assay B: In Vitro Vascular Smooth Muscle-Response for ATT
Compounds of Formula I were tested for antagonist activity in rabbit aortic rings. Male New Zealand white rabbits (2–2.5 kg) were sacrificed using an overdose of pentobarbital and exsanguinated via the carotid arteries. The thoracic aorta was removed, cleaned of adherent fat and connective tissue and then cut into 3-mm ring segments. The endothelium was removed from the rings by gently sliding a rolled-up piece of filter paper into the vessel lumen. The rings were then mounted in a water-jacketed tissue bath, maintained at 37° C., between moveable and fixed ends of a stainless steel wire with the moveable end attached to an FT03 Grass transducer coupled to a Model 7D Grass Polygraph for recording isometric force responses. The bath was filled with 20 ml of oxygenated (95% oxygen/5% carbon dioxide) Krebs solution of the following composition […]: 130 NaCl, 15 NaHCO3, 15 KCl, 1.2 NaH2PO4, 1.2 MgSO4, 2.5 CaCl2, and 11.4 glucose. The preparations were equilibrated for one hour before approximately one gram of passive tension was placed on the rings. Angiotensin II concentration-response curves were then recorded (3×10^−10 to 1×10–5 M). Each concentration of AII was allowed to elicit its maximal contraction, and then AII was washed out repeatedly for 30 minutes before rechallenging with a higher concentration of AII. Aorta rings were exposed to the test antagonist at 10^−5 M for 5 minutes before challenging with AII. Adjacent segments of the same aorta ring were used for all concentration-response curves in the presence or absence of the test antagonist. The effectiveness of the test compound was expressed in terms of pA2 values and were calculated according to H. O. Schild [Br. J. Pharmacol. Chemother., 2, 189–206 (1947)]. […] Each test antagonist was evaluated in aorta rings from two rabbits.

[2] = molecular target: T1, smooth muscle angiotensin II receptor; test: Assay A: Angiotensin II Binding Activity; settings: rat uterine membrane preparation, displacement of 125I-AII
T1 construct: Rat uterine membranes were prepared from fresh tissue
Protocol: Assay A: Angiotensin II Binding Activity
Compounds of Formula I were tested for ability to bind to the smooth muscle angiotensin II receptor using a rat uterine membrane preparation. […] Other chemicals were obtained from Sigma Chemical Co. This assay was carried out according to the method of Douglas et al [Endocrinology, 106, 120–124 (1980)]. Rat uterine membranes were prepared from fresh tissue. All procedures were carried out at 4° C. Uteri were stripped of fat and homogenized in phosphate-buffered saline at pH 7.4 containing 5 mM EDTA. The homogenate was centrifuged at 1500×g for 20 min., and the supernatant was recentrifuged at 100,000×g for 60 min. The pellet was resuspended in buffer consisting of 2 mM EDTA and 50 mM Tris-HCl (pH 7.5) to a final protein concentration of 4 mg/ml. […] The reaction was initiated by the addition of membrane protein and the mixture was incubated at 25° C. for 60 min. The incubation was terminated with ice-cold 50 mM Tris-HCl (pH 7.5) and the mixture was filtered to separate membrane-bound labelled peptide from the free ligand. The incubation tube and filter were washed with ice-cold buffer. Filters were assayed for radioactivity in a Micromedic gamma counter. Nonspecific binding was defined as binding in the presence of 10 μM of unlabelled AII. Specific binding was calculated as total binding minus nonspecific binding. […] Binding data were analyzed by a nonlinear least-squares curve fitting program.

Structure (SMILES) | Assay B pA2 [1] | IC50 [2] [nM]
CCCCc1nc(CC(=O)O)nn1Cc1ccc(-c2ccccc2-c2nnn[nH]2)cc1 [Example 7, 5-[4′-[(5-butyl-3-carboxymethyl-1H-1,2,4-triazol-1-yl)methyl][1,1′-biphenyl]-2-yl]-1H-tetrazole] | 8.05 | 
CCCCc1nc(Cl)nn1Cc1ccc(-c2ccccc2C(=O)O)cc1 (single isomer, unassigned) [Example 6, 4′-[(5-butyl-3-chloro-1H-1,2,4-triazol-1-yl)methyl][1,1′-biphenyl]-2-carboxylic acid] |  | 1300
CCCCc1nc(CCC)nn1Cc1ccc(-c2ccccc2C(=O)O)cc1 [Example 14, 4′-[(5-butyl-3-propyl-1H-1,2,4-triazol-1-yl)methyl]-[1,1′-biphenyl]-2-carboxylic acid] | 8.71 | 7.2
CCCCCc1nc(CN)nn1Cc1ccc(-c2ccccc2-c2nnn[nH]2)cc1 [Example 13, 5-[4′-[(3-aminomethyl-5-pentyl-1H-1,2,4-triazol-1-yl)methyl][1,1′-biphenyl]-2-yl]-1H-tetrazole] | 8.85 | 
O=C(O)c1ccccc1-c1ccc(Cn2nc(C(F)(F)C(F)(F)C(F)(F)F)nc2C(F)(F)C(F)(F)C(F)(F)F)cc1 [Example 20, 4′-[(3,5-di-perfluoropropyl-1H-1,2,4-triazol-1-yl)methyl][1,1′-biphenyl]-2-carboxylic acid] | 5.99 | 78000
CCCCc1nc(CCC(C)C)nn1Cc1ccc(-c2ccccc2C(=O)O)cc1 [Example 17, 4′-[(5-butyl-3-isopentyl-1H-1,2,4-triazol-1-yl]methyl)-[1,1′-biphenyl]-2-carboxylic acid] | 8.40 | 
CCCc1nc(CN)nn1Cc1ccc(-c2ccccc2-c2nnn[nH]2)cc1 [Example 12, 5-[4′-[(3-aminomethyl-5-propyl-1H-1,2,4-triazol-1-yl)methyl][1,1′-biphenyl]-2-yl]-1H-tetrazole] | 8.59 | 
CCCCc1nc(CCC)n(Cc2ccc(-c3ccccc3C(=O)O)cc2)n1 [Example 15, 4′-[(3-butyl-5-propyl-1H-1,2,4-triazol-1-yl)methyl]-[1,1′-biphenyl]-2-carboxylic acid] | 8.30 | 
CCCCc1nc(C(F)(F)CCC)nn1Cc1ccc(-c2ccccc2C(=O)O)cc1 [Example 10] |  | 4.9
CCCCc1nc(CCC(C)C)n(Cc2ccc(-c3ccccc3C(=O)O)cc2)n1 [Example 16] | 9.24 | 6.4
